Experimental data published in PubChem BioAssay AID504332 (National Center for Advancing Translational Sciences (NCATS), 2011).
“And” between values parts separate entries of the source, which are not always exact repeats. Identical values can stand only once. The campaign covered roughly 350,000 compounds. About 31,000 (8.9%) were called active. Inconclusive means that the source gave no clear call. Such entries were picked first, then a sample of the others. Calls follow the shape of the dose curve; as a rule, active = well fitted inhibition curve with a large enough effect; inconclusive = small, poorly fitted or top-dose-only effect; inactive = no such curve, though single readings can be large or run the other way. Where the call is inconclusive, the potency comes from a doubtful curve fit.
% is scaled to controls: 0 for no effect and ±100 for the full control effect; potency is read from the fitted curve at half-maximal effect; tags tell the direction and shape of the fitted curve.
Also: nearly all actives have a fitted effect of over 75% in size.

What follows are compounds tested against Histone-lysine N-methyltransferase EHMT2 (Homo sapiens) (UniProt Q96KQ7) (assay: qHTS Assay for Inhibitors of Histone Lysine Methyltransferase G9a). Details: G9a H3K9 monomethylation, AlphaScreen, 2 h; activity, negative = inhibition: at 59 µM (top of the series) unless noted.
UniProt Q96KQ7, sequence (Q96KQ7 whole entry, looked up): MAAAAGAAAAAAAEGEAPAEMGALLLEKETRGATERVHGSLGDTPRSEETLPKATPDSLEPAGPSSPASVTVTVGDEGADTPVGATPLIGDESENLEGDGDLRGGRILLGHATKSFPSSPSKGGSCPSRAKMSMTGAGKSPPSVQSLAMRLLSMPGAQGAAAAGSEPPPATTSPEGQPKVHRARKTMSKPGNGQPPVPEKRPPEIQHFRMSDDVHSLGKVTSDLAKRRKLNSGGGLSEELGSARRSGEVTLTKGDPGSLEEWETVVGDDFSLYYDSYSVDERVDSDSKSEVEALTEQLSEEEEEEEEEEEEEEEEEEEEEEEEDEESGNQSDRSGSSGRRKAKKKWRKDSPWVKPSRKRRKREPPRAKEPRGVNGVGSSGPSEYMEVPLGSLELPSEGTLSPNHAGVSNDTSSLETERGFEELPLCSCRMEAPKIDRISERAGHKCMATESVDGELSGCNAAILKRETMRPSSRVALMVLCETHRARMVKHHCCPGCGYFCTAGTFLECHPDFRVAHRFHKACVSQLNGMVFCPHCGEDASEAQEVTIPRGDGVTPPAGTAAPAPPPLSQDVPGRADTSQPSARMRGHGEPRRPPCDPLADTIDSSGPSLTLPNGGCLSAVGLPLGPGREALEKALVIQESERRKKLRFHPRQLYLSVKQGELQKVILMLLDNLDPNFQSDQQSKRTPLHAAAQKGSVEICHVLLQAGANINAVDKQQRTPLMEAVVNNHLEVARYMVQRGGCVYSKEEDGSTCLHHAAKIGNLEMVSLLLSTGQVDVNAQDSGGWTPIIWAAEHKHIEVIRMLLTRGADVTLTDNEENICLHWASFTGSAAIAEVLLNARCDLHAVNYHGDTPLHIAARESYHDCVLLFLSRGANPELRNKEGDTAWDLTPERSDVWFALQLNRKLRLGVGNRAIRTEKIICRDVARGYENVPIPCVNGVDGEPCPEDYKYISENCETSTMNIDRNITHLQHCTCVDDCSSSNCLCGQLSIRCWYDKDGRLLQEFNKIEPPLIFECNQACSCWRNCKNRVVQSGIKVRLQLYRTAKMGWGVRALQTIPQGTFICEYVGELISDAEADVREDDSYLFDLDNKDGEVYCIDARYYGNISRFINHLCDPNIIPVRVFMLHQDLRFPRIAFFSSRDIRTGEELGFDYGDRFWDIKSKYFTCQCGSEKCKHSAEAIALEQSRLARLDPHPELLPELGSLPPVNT
How it was run: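 AlphaScreen detection with an anti-monomethyl H3K9 antibody quantified product after a 2 h room-temperature reaction containing 500 nM biotinylated H3K9 peptide, 20 µM SAM and 20 nM enzyme, which had been preincubated 15 min with compound.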
In the case of COc1ccccc1C(=O)N(C)CC(=O)Nc1ccc(N2CCOCC2)cc1, the Potency is reported as inconclusive: 3.98 µM [inhibitor, single point]. For N#Cc1ccc2c(c1)NC(=O)C1CCCN21 (configuration not stated), the Potency was active: 14.1 µM. With Oc1ccccc1N1CCN(c2ncnc3scc(-c4ccc(F)cc4)c23)CC1 the Potency was inconclusive: 89.1 µM [inhibitor, single point]. CCC(=O)Nc1ccc2c(c1)nc(CCNC(=O)c1ccco1)n2C was tested, and the Potency was “inactive”. In the case of COc1ccc(CCN(C)CCC(=O)Nc2cccc(C)c2)cc1OC, the Potency is reported as inconclusive: 89.1 µM [inhibitor, partial curve, poor fit]. In the case of O=c1cc(COc2ccccc2[N+](=O)[O-])nc2sccn12, the Potency is reported as inconclusive: 50.1 µM [inhibitor, partial curve, poor fit]. Cc1nn(C)c(C(=O)Nc2ccc(S(=O)(=O)NC34CC5CC(CC(C5)C3)C4)cc2)c1Br was tested, and the Potency was inconclusive: 39.8 µM [inhibitor, single point]. For CCOC(=O)C1CCN(C(=O)CN2c3ccc(C(C)C)cc3-c3ccccc3S2(=O)=O)CC1, the Potency was “inactive”. For O=C(O)c1ccc(-n2nc(C(F)(F)F)c3c2-c2ccoc2CC3)cc1, the activity, negative = inhibition was inconclusive: -55.2% [inhibitor]. With COc1ccc(OC)c(NC(=S)Nc2ccccc2)c1 the Potency was “inactive”. In the case of CC1CCCCN1CCCNC(=O)c1[nH]c2ccccc2c1Sc1ccc(Cl)cc1 (configuration not stated), the Potency is reported as inconclusive: 28.2 µM [inhibitor, partial curve, poor fit]. Cc1ccc(Nc2cc(C)c(O)c(C)c2)cc1 was tested, and the Potency was active: 25.1 µM. With COC(=O)C1=C(C)NC(=O)/C1=C\c1cc(C)n(-c2ccccc2C)c1C the Potency was active: 44.7 µM. O=C(O)CN1C(=O)/C(=C/C=C/c2ccccc2)SC1=S was tested, and the Potency was inconclusive: 44.7 µM [inhibitor, partial curve]. For C=CCNC(=S)Nc1cccc([N+](=O)[O-])c1, the Potency was inconclusive: 89.1 µM [inhibitor, single point]. For COCCCNC(=O)CN(C1CCCCC1)S(=O)(=O)c1ccc(C)cc1, the activity, negative = inhibition was inconclusive: -52% [inhibitor] [at 102 µM]. With CCCc1cc(=O)n2[nH]c(NCc3ccc(OC)c(OC)c3)nc2n1 the Potency was inconclusive: 89.1 µM [inhibitor, single point]. For CC1Sc2ccc(C(=O)Nc3ccccc3OC(F)F)cc2NC1=O (configuration not stated), the Potency was inconclusive: 50.1 µM [inhibitor, partial curve]. Cc1nn(C)c(C(=O)Nc2cccc(Nc3ccccc3)c2)c1[N+](=O)[O-] was tested, and the Potency was active: 44.7 µM. In the case of C(=N\Nc1ccccn1)/c1ccc2c(c1)OCCO2, the Potency is reported as inconclusive: 79.4 µM [inhibitor, partial curve, poor fit]. In the case of Cc1cc(C(=O)NNc2ccc(F)cc2)no1, the Potency is reported as active: 28.2 µM. In the case of Cc1ccc(S(=O)(=O)N2Cc3ccccc3CC2C(=O)Nn2cnnc2)cc1 (configuration not stated), the Potency is reported as inconclusive: 20 µM [inhibitor, single point]. For CCC1=NN(C(=O)C(=O)Nc2ccc(OC)cc2)C(O)(C(F)(F)F)C1 (configuration not stated), the Potency was inconclusive: 2.82 µM [inhibitor, partial curve, poor fit]. In the case of COc1cccc(C(=O)N2CCN(Cc3ccccc3C(F)(F)F)CC2)c1, the Potency is reported as active: 3.55 µM. For CC(Oc1ccc(Br)cc1)C(=O)Nc1cc(S(=O)(=O)N2CCOCC2)ccc1N1CCCC1 (configuration not stated), the Potency was inconclusive: 50.1 µM [inhibitor, partial curve]. With COc1ccc(C)cc1S(=O)(=O)n1cnc2ccccc21 the Potency was “inactive”. With Cc1cccc(C)c1NC(=O)CSc1nc2ncccc2o1 the Potency was “inactive”. With COc1ccc(C(=O)Nc2nc3nc(-c4ccccc4)cc(=O)n3[nH]2)cc1 the Potency was inconclusive: 22.4 µM [inhibitor, single point]. In the case of COc1ccc(S(=O)(=O)N(CC(=O)NC2CC2)C2CCCCC2)cc1Cl, the activity, negative = inhibition is reported as inactive: -47.8% [at 12.7 µM]. With Cc1ccc(S(=O)(=O)NCC(c2ccc(N(C)C)cc2)N2CCc3ccccc32)cc1C (configuration not stated) the Potency was active: 5.62 µM. For COc1cc(SSc2cc(OC)cc([N+](=O)[O-])c2N)c(N)c([N+](=O)[O-])c1, the Potency was active: 0.447 µM. In the case of CCOC(=O)N1CCN(c2cc3[nH]c(=S)[nH]c3cc2F)CC1, the Potency is reported as active: 2.24 µM. In the case of Cc1ccc(C2(c3ccc(C)cc3)NC(=O)N(CC(N)=O)C2=O)cc1, the Potency is reported as inconclusive: 89.1 µM [inhibitor, partial curve, poor fit]. With COc1cccc(CNc2nccn(-c3cc(C)cc(C)c3)c2=O)c1 the Potency was inconclusive: 39.8 µM [inhibitor, partial curve, poor fit]. For O=C(Nc1cc(S(=O)(=O)N2CCOCC2)ccc1N1CCCC1)C1CC1, the Potency was active: 39.8 µM. In the case of O=C(CSCC(=O)N1CCN(c2ccccc2)CC1)Nc1nc(-c2ccc(Cl)s2)cs1, the Potency is reported as inconclusive: 35.5 µM [inhibitor, partial curve, poor fit]. In the case of CCC(=O)NC(c1cc(Cl)c2ccccc2c1O)C(C)C (configuration not stated), the activity, negative = inhibition is reported as inactive: -1.62% [at 0.501 µM]. With Cc1ccc(C(=O)Nc2ccccc2C(=O)O)cc1S(=O)(=O)Nc1ccccc1 the Potency was “inactive”. For Cc1c(Cl)cccc1NC(=O)Cn1cc(C(=O)C2CCCCC2)c2ccccc21, the Potency was “inactive”. In the case of Clc1ccc2nc(NCc3ccccc3)c3nncn3c2c1, the Potency is reported as “inactive”. With O=C(O)c1cccnc1C(=O)O the Potency was active: 1.58 µM and active: 3.55 µM. For c1ccc(-c2nnc(SCc3nnc(-c4cccs4)o3)o2)cc1, the Potency was inconclusive: 7.08 µM [inhibitor, full curve, poor fit]. For CCc1ccc(Nc2nnc(SCC(=O)NC(=O)c3cccn3C)s2)cc1, the activity, negative = inhibition was inconclusive: -100% [inhibitor]. For CC(=O)c1cc(NC(=O)c2ccc(C)cc2)c(=O)oc1C, the Potency was active: 17.8 µM. In the case of CC(=O)n1c2ccccc2c2nc(NC(C)C)sc21, the Potency is reported as inconclusive: 39.8 µM [inhibitor, single point]. Cc1cc(NC(=O)COc2cccc3cccnc23)no1 was tested, and the Potency was inconclusive: 3.55 µM [inhibitor, full curve, poor fit]. In the case of O=C(O)C1CC=CCC1C(=O)NCCCN1CCCC1=O (configuration not stated), the Potency is reported as inconclusive: 44.7 µM [inhibitor, partial curve, poor fit].
